Reference: the GPR68 mutational scans of Howard et al. (2025)

B1: GPR68, Q15743 (parent)
chain: MGNITADNSSMSCTIDHTIHQTLAPVVYVTVLVVGFPANCLSLYFGYLQIKARNELGVYLCNLTVADLFYICSLPFWLQYVLQHDNWSHGDLSCQVCGILLYENIYISVGFLCCISVDRYLAVAHPFRFHQFRTLKAAVGVSVVIWAKELLTSIYFLMHEEVIEDENQHRVCFEHYPIQAWQRAINYYRFLVGFLFPICLLLASYQGILRAVRRSHGTQKSRKDQIQRLVLSTVVIFLACFLPYHVLLLVRSVWEASCDFAKGVFNAYHFSLLLTSFNCVADPVLYCFVSETTHRDLARLRGACLAFLTCSRTGRAREAYPLGAPEASGKSGAQGEEPELLTKLHPAFQTPNSPGSGGFPTGRLA

Assays:
[1] = variants of: B1; assay: cAMP reporter score (Enrich2 score, wild type = 0); higher = more signal; HEK293T, FACS bins
[2] = variants of: B1; assay: surface expression score (Enrich2 score, wild type = 0); higher = more signal; HEK293T, FACS bins

Variant | cAMP reporter score ([1]; pH 5.5) | cAMP reporter score ([1]; pH 6) | cAMP reporter score ([1]; pH 6, modulator: ogerin) | cAMP reporter score ([1]; pH 6.5, modulator: ogerin) | surface expression score [2]
R213_R214insGS | -1.45 | -1.04 | -1.4 | -0.686 | 0.632
L209_R210del | -1.58 | -1.71 | -1.5 | -1.46 | -1.67
R214_S215insG | -1.23 | -0.758 | -0.674 | -1.29 | 0.959
L209_A211del | -1.67 | -0.716 | -1.23 | -0.741 | -0.043
A211N | -1.11 | -0.782 | -0.503 | -1.2 | -0.582
A211T | -0.136 | -0.366 | -0.354 | -0.75 | -0.576
A211R | -1.29 | -0.566 | – | -0.465 | 0.026
A211Y | -0.488 | -0.048 | -0.788 | -0.837 | -1.08
A211F | -0.365 | – | -0.644 | -0.426 | –
A211P | -0.554 | -1.65 | -0.671 | -1.3 | -0.863
A211C | -0.832 | -1.13 | -0.512 | -0.529 | -0.687
A211K | -0.057 | -0.007 | -0.378 | -0.929 | 0.106
A211V | -0.62 | -0.18 | -0.591 | -0.515 | -0.587
A211H | 1.17 | -0.783 | 0.106 | -0.179 | -0.539
A211D | 0.197 | -1.01 | -0.456 | -0.78 | -0.086
A211M | -0.537 | -0.99 | -1.15 | -0.601 | -0.982
A211I | 1.46 | 0.52 | 0.87 | 1.02 | -0.402
A211Q | 0.902 | 1.24 | 0.937 | -0.299 | –
A211L | -1.03 | -0.862 | -1.8 | -0.986 | -1.83
A211E | 0.793 | -0.224 | 0.66 | 1.95 | 0.376
A211S | 0.519 | -0.674 | 0.328 | -0.272 | -0.833

Variant | cAMP reporter score ([1]; pH 5.5) | cAMP reporter score ([1]; pH 6) | cAMP reporter score ([1]; pH 6, modulator: ogerin) | cAMP reporter score ([1]; pH 6.5, modulator: ogerin) | surface expression score [2]
L209_R210insGSG | -1.12 | -1.42 | -1.87 | -1.57 | -2.19
R210_A211del | -0.537 | -1.14 | -0.852 | -0.213 | –
G207_I208insGS | -1.71 | -1.53 | -0.626 | -1.47 | -2.56
R214_S215insGS | -1.2 | – | -1.14 | -0.874 | 1.23
R210_A211insGSG | -1.53 | -1.43 | -1.14 | -0.81 | -1.04
R213_R214del | -1.36 | -1.63 | -1.83 | -0.996 | -0.347
S215L | -0.214 | – | -1.44 | -1.66 | 0.551
S215Q | -1.51 | -1.03 | -1.84 | -0.731 | 0.47
S215V | -1.02 | -0.96 | -2.01 | -1.22 | -0.239
S215G | -1.17 | -0.966 | – | -0.724 | 1.15
S215A | -0.738 | -0.583 | -1.73 | -1.14 | 0.005
S215H | -0.759 | -0.368 | -0.709 | -0.092 | 0.811
S215P | -0.857 | -0.894 | -2.1 | -0.993 | 0.228
S215T | -0.705 | – | – | -1.57 | 0.406
S215F | -1.49 | -1.18 | -1.89 | -1.46 | -1.53
S215M | -0.451 | -1.23 | -0.224 | 0.164 | -0.008
S215E | 1.02 | – | 1.15 | 2.32 | –
S215K | -1.5 | -1.19 | -1.59 | -1.77 | 1.11
S215R | -1.88 | -1.26 | -2.08 | -1.41 | 0.231
S215I | -0.981 | -0.265 | -1.22 | -1.42 | -0.736
S215D | -0.513 | -0.649 | -0.989 | -0.059 | 0.734

Variant | cAMP reporter score ([1]; pH 5.5) | cAMP reporter score ([1]; pH 6) | cAMP reporter score ([1]; pH 6, modulator: ogerin) | cAMP reporter score ([1]; pH 6.5, modulator: ogerin) | surface expression score [2]
S215C | -0.985 | -1.03 | -1.53 | -1.36 | 0.693
S215N | -0.685 | -1.05 | -1.35 | -1.07 | 1.02
A211_V212del | -1.69 | -0.692 | -1.32 | -0.859 | -0.336
G207_I208del | -1.24 | -0.768 | -1.5 | -0.366 | -2.73
G207del | -1.51 | -1.82 | -1.8 | -1.2 | -2.78
I208_L209insG | -0.353 | 0.075 | -0.95 | -0.27 | -1.99
A211_V212insG | -1.01 | -1.62 | – | -2.37 | 0.146
V212_R213insGSG | -1.93 | -1.54 | -1.56 | -0.428 | -0.252
G207K | -0.691 | -1.27 | -0.597 | -1.31 | -1.07
G207L | 0.614 | -0.806 | 0.172 | -0.591 | -0.788
G207T | -0.809 | -0.455 | -1.72 | -1.19 | -1.64
G207N | -1.47 | -0.484 | -0.062 | 0.73 | -1.12
G207S | 0.654 | -0.342 | 0.812 | -0.188 | -1.5
G207P | -0.061 | 0.284 | -0.742 | -0.806 | -2.76
G207Y | 0.198 | -0.998 | -0.495 | -0.865 | -1.34
G207I | -1.13 | -0.786 | – | -0.756 | -1.91
G207R | -0.325 | – | -0.778 | -1.44 | -1.67
G207V | -1.96 | -1.26 | -1.65 | -1.27 | -1.74
G207M | -0.853 | -1.12 | -1.22 | -1.22 | -1.24
G207Q | 1.82 | 0.104 | 1.34 | 0.999 | -0.731
V212_R214del | -1.35 | -1.32 | -1.67 | -1.4 | -0.115

Scores whose standard error is large were omitted. Not listed are two conditions whose scores span a narrow range. Read del as a deletion of the residues named and ins as an insertion between two positions. For part of these data: How much ogerin was present is not stated here.
